Laboratory results from the supplement of paper PMC7335073.
The full ranking holds about 4,100 sequences; the median of “relative CpG methylation activity (normalised to average over all NNNCGNNN flanks)” is about 0.87, and the highest 2% start at about 2.4. The list shows a part of the results.

target: DNMT3A catalytic domain (mouse) (UniProt O88508); test: relative CpG methylation activity (normalised to average over all NNNCGNNN flanks) (relative (1 = mean)); higher = more methylation of the central CpG; conditions: system: in vitro, murine catalytic domain; CpG state: hemimethylated substrate pool; residues: 608-908
Experimental: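 Deep enzymology: a pool of dsDNA substrates with a central CpG flanked by 10 random nucleotides on each side was methylated by the murine DNMT3A or DNMT3B catalytic domain (0.8 mM SAM, 37 °C, 60 min). Methylation was then read out by hairpin ligation, bisulfite conversion and NGS. Values are the average methylation of each NNNCGNNN context (±3 flanks; the outer flanks are random and averaged over), normalised to the overall mean, so 1 = average activity.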

Sequence	relative CpG methylation activity
TGACGGCG	0.341
AAACGGCA	0.714
CTCCGCGG	0.426
CCGCGGAG	0.286
TTTCGACA	1.06
AGCCGCAT	0.699
TCCCGAGC	1.35
GTGCGTGG	0.603
CCACGATA	1.05
AGACGATT	0.791
GCGCGACC	1.12
GGTCGCTG	0.804
ATACGTCG	2.26
AACCGCGA	0.728
TCTCGAAT	0.62
TCCCGCAT	0.92
TGTCGGTT	0.185
GCTCGCTG	1.12
TTACGAGT	1.76
GTTCGGCA	0.789
AAGCGGAT	0.296
CCACGCAT	1.41
GCTCGGGA	0.658
TGACGACG	0.449
AGACGTAA	1.02

Sequence	relative CpG methylation activity
AACCGAAG	0.475
CATCGCCC	1.88
TGTCGGAT	0.585
GCCCGAAT	0.964
ATGCGTAT	1.15
GTACGCGA	1.39
GAACGCAC	1.04
ATCCGTTA	1.61
GGTCGAAG	0.142
CTTCGTAC	1.42
AAACGTAG	0.536
ACCCGCCT	2.44
GGTCGCGC	0.806
TGACGTCA	0.989
CCGCGATT	0.805
ACGCGGCG	0.363
TGCCGTGT	0.128
CATCGGCT	0.8
TAGCGGTA	0.399
AGACGCTT	1.61
ATACGTAG	1.37
AAACGTAC	0.553
TCTCGTAA	1.88
AGTCGCCA	0.994
CATCGTCG	1.01

Sequence	relative CpG methylation activity
TGTCGATG	0.316
CTACGTCG	2.46
TCTCGCCT	1.73
GCCCGCGT	0.742
GAACGAGA	0.69
CAACGCGA	0.48
ATTCGGTC	1.24
AAACGTCA	1.14
CCACGACA	1.25
TTGCGGCA	1.01
GTGCGAAC	1.72
CCCCGTGC	0.871
ACACGTAT	1.34
TTACGGGA	1.68
CCGCGAGT	0.847
TCACGCAT	1.65
GAGCGGTT	0.614
TAACGGAG	0.496
ACGCGGCA	1.07
GAGCGGGG	0.227
ACGCGAAT	0.712
TTGCGTCC	2.39
AGTCGGTG	0.338
GCTCGAGC	1.13
CTCCGCTT	2.3

Sequence	relative CpG methylation activity
ACCCGGCG	0.839
TGTCGCTT	1.65
CAGCGGCA	0.544
AATCGGAC	0.439
AGGCGTCG	1.11
CCCCGCCA	1.91
TGGCGACG	0.592
GGACGATG	0.974
ACTCGTAC	1.01
CCCCGATA	1.02
ATCCGATC	1.9
GCGCGCCG	1.96
CCCCGAGA	1.15
AACCGATG	0.51
GCCCGACA	1.42
TTACGGTG	1.05
CTTCGCGG	0.357
CAGCGCCC	1.19
ATCCGCCA	2.4
CGCCGTTA	0.838
CGTCGTCT	0.702
AGTCGAAT	0.376
AACCGTTC	1.16
CATCGAAC	0.962
ATACGAAC	2.03

Sequence	relative CpG methylation activity
ACTCGGAG	0.303
GTCCGAAT	1.47
GCACGGTA	0.912
GCCCGCAC	1.15
TATCGAAG	0.163
ACTCGCTA	1.08
GCCCGGAC	0.874
TAGCGCTC	0.977
AATCGTCG	0.441
CCCCGAAA	1.36
GGCCGAGC	0.99
ACACGCCT	2.44
GTACGTAT	1.2
GTCCGAAG	1.03
ACGCGATC	1.35
TTACGGGG	0.917
GCTCGACC	1
GTCCGCCC	2.41
AGGCGGTT	0.312
ACGCGATG	0.763
TCGCGTCT	1.16
GACCGAGT	0.88
TGACGCGA	0.348
CAACGTGT	0.264
GAACGTAT	0.58

Sequence	relative CpG methylation activity
GGGCGGGT	0.571
CCGCGTCT	1.39
GATCGACC	0.609
ACCCGACC	1.54
GCGCGAAT	0.817
AGACGTCG	1.52
GCACGGAG	0.34
GTTCGAAG	0.294
GAACGTAA	0.932
TAACGAAG	0.365
CATCGTTA	0.481
CCTCGAAT	0.708
GCACGGCC	1.84
CCCCGCAT	1.12
TGTCGGTC	0.542
TTCCGGTC	1.9
TCACGTCT	1.96
ACTCGAGC	1.62
TTGCGATA	1.13
ATTCGACT	0.892
CCCCGAAC	1.69
GATCGCCT	1.08
TAGCGTTA	0.317
ACCCGTGA	0.758
AGCCGCTG	0.808

Sequence	relative CpG methylation activity
GAACGAGG	0.366
TAGCGGTC	0.479
AGCCGCTC	0.894
ACTCGTGT	0.429
GTTCGATT	1.15
TCTCGATC	1.24
CTGCGGGC	1.65
CTGCGGCC	1.59
GTTCGCAA	1.24
AATCGGGT	0.351
CGCCGGCG	0.625
ACACGGGG	0.593
TGTCGCCC	1.85
GTGCGCCG	1.79
CCGCGGAC	0.958
GGACGACA	0.678
TGACGCCT	1.38
TAGCGGCT	0.556
TGTCGGGG	0.025
TATCGCAA	0.653
CGCCGCGC	0.549
AAACGCCC	1.3
TCTCGGGA	0.811
ACTCGGGT	0.694
ACTCGATC	1.17

Sequence	relative CpG methylation activity
CTCCGGAG	0.263
CCTCGCAA	1.31
GCGCGCCA	1.61
CGACGTTG	0.323
CAGCGTCG	0.88
GCACGTTA	1.38
GTTCGGTG	0.222
CGTCGTAA	0.807
TAGCGGCG	0.253
TAACGGAA	0.677
ACCCGGGT	0.672
ACACGAAG	0.769
GAACGCTT	1.35
CGTCGCGC	0.782
GGACGATA	0.784
AGCCGCGA	0.506
ATACGAGG	1.25
ACTCGCCG	1.59
GATCGCAC	0.525
TTGCGGCG	0.725
TTTCGTGG	0.217
CGTCGATA	0.491
CGCCGGGT	0.38
CTCCGTTC	1.57
GTCCGCAG	1.09

Sequence	relative CpG methylation activity
CTTCGCAG	0.865
AATCGAGT	0.206
GAACGAAG	0.369
ATCCGCGG	0.871
ATCCGGCT	1.32
TAACGATC	0.922
ACGCGTTG	0.53
CATCGACC	0.793
CGCCGGAG	0.137
GGCCGTTG	0.368
CTTCGGTC	1.38
TCACGCTG	1.32
TTTCGCAC	1.32
GAGCGGAC	0.472
GTTCGAGG	0.109
CAACGTGG	0.153
AGACGTGT	0.344
GACCGGAG	0.152
ACCCGATT	1.01
CCGCGCTA	1.14
ATACGGCA	1.9
CTCCGTAC	1.3
ACACGCTA	1.76
CTACGCCC	2.62
GCGCGAAC	1.4

Sequence	relative CpG methylation activity
TACCGTTA	0.738
TACCGACG	0.602
TGCCGTGC	0.417
TCGCGTGT	0.325
GAACGAAT	0.714
GAACGATC	1.1
TCTCGTAT	0.857
CGTCGAGG	0.0833
AGACGATA	1.13
CGACGACT	0.568
TACCGGTA	0.641
AACCGAAA	1.12
ATACGCAT	1.79
TGGCGTGC	0.253
TCACGGGG	0.733
TCCCGTGA	0.701
CGTCGTGC	0.0467
TTTCGAAG	0.543
CGTCGGTC	0.758
TGACGATA	0.409
TCGCGATA	0.655
GGCCGTAA	0.805
CCGCGTCG	1.3
AACCGGAA	0.796
GCGCGGCC	0.991

Sequence	relative CpG methylation activity
AGTCGAAC	0.657
TGGCGTCT	0.833
GGGCGTCA	1.28
CTTCGTCT	1.76
GTTCGCCG	1.92
GCCCGCCG	1.71
GTCCGTAA	1.74
CATCGAAG	0.227
ATTCGTGC	0.438
GCCCGTTC	1.09
CGCCGGGG	0.1
TCTCGATG	0.633
GCCCGACG	1.3
ATTCGTCC	1.67
GGACGCCG	1.1
AAACGACG	0.456
TGCCGATC	1.09
TTACGATT	1.46
CACCGTTG	0.409
TGCCGACC	1.23
AATCGATC	0.532
GTACGCGC	2.11
ACACGTAA	1.94
CTCCGGGG	0.938
GAGCGTTC	0.769

Sequence	relative CpG methylation activity
CTGCGAAT	1.14
TCCCGATT	0.954
TATCGTGT	0.3
ATGCGACC	1.27
ACTCGATT	0.858
GCGCGTCA	1.25
ACGCGACT	0.964
GCGCGTCG	1.51
ACGCGACA	1.19
GCACGAAA	1.43
ATTCGTGA	0.534
TTACGTCC	2.56
CAACGCAT	0.896
TCCCGGTA	0.809
TTTCGTAG	0.778
AGTCGTGG	0.159
GTACGGTG	1.16
TGTCGCAG	0.459
TGGCGCCC	1.29
CCCCGAGT	1.08
AGCCGATA	0.75
GACCGATC	1.55
ATTCGCGC	1.11
GTCCGGAT	1.22
CCGCGCAG	0.397

Sequence	relative CpG methylation activity
TTTCGAAT	0.891
AAACGCTT	1.2
GTACGACT	1.42
TCTCGGAC	1.15
AAGCGTGT	0.333
ATCCGCCG	2.1
TAGCGTGG	0.133
GGCCGTGC	0.353
CGTCGAAT	0.537
TATCGATG	0.224
TCACGTCA	2.03
CCGCGGTC	1.06
GCGCGCAT	0.922
GCACGCAT	1.23
AGCCGTAC	0.397
AGCCGACT	0.799
TTACGTAA	2.54
AGCCGGTT	0.517
CTGCGGTG	1.2
ACCCGCGT	0.991
AAGCGGTT	0.381
TATCGTAT	0.573
TTGCGTTC	1.85
TTTCGTAC	0.893
CATCGAGT	0.652

Sequence	relative CpG methylation activity
TAGCGCGA	0.115
ATCCGTGT	0.694
GGGCGTAT	0.588
GGGCGTGA	0.51
ACTCGAAG	0.482
TTACGTCA	2.5
GTGCGTAT	1.03
TTTCGTTT	1.29
GATCGTCC	0.861
CCGCGTGG	0.205
GCGCGACA	1.12
AGACGCGG	0.252
CTACGCCA	2.74
AAACGGAG	0.162
CAACGGGC	0.902
TCCCGTTT	0.85
TTTCGGCC	1.08
CATCGGTT	0.591
TGACGAAT	0.413
